# This list was built around the results that the source calls inconclusive (neither active nor inactive); the mix of calls is not that of the screen. No potency is given beside an inconclusive call; the fits are too rough. The source made the active and inactive calls. Calls follow the shape of the dose curve; as a rule, active = well fitted activation curve with a large enough effect; inconclusive = small, poorly fitted or top-dose-only effect; inactive = flat fitted curve, though single readings scatter.
# Assay: Primary redox qHTS assay for identification of artifact compounds. (AID 1845223)
# Details: Amplex Red/HRP redox cycling with DTT, fluorescence; redox activity (% of DA3003): at 53.8 µM (top of the series)
# Excerpt: PI: Alexander Tropsha Ph.D.
# UNC Eshelman School of Pharmacy
# University of North Carolina, Chapel Hill, North Carolina
# Hits from high-throughput screening (HTS) of chemical libraries are often false positives due to their interference with the assay detection technology. In response to this problem, we generated the largest publicly available library of chemical liabilities and developed a free webtool to predict HTS artifacts, both of which are described herein. More specifically, we generated, curated, and integrated HTS datasets for thiol reactivity, redox activity, and luciferase (firefly and nano) activity. Using these curated datasets, we developed and validated several Quantitative Structure-Interference Relationship (QSIR) models to predict nuisance behavior. […] These models were employed for virtual profiling of the National Center for Advancing Translational Science's (NCATS) in-house library, and 256 compounds for each assay were selected for the experimental validation of nuisance behavior. The BA for these external predictions ranged from 58 to 78% for compounds within the applicability domains of the models. […] The models developed in this study, along with aggregation models previously developed by our group (SCAM Detective) were implemented in "Liability Predictor," an online tool which may be used as part of chemical library design or for triaging HTS hits. Both the models and the curated datasets are publicly available at https://liability.mml.unc.edu/.
# SEQUENCE No. (e.g., 1, 2, 3, etc.); […] (e.g., Cells, Incubation, Reagent, etc.); VALUE; DESCRIPTION.
# 1; Reagent; 3 uL; Amplex Red and HRP mixture.
# 2; Compounds and control; 16 nL; Kalypsis pin tool (Wako USA) equipped with a 1536-well pin head. […]
# 6; Detection; Fluorescence, ViewLux microplate reader, 525 nm excitation, 598 nm emission.
# NOTES (numbers refer to Sequence numbers above)
# 1. 3 uL of a mixture containing Amplex Red (25 uM final concentration) and horseradish peroxidase (HRP; 250 mU/mL final concentration) in assay buffer (HBSS) was dispensed into all wells of a 1536-well assay plate (solid-bottom black plate; Greiner Bio One, Monroe, NC).
# 2. A Wako Pin-tool (Wako Automation, Richmond, VA) was used to transfer 16 nL of compounds (consisting of 7-plates in qHTS format, final concentration range 18.3 nM to 114 uM) or control DA3003 (final concentration range 1.22 nM to 40 uM).
# 3. 15 min. incubation at room temperature protected from light.
# 4. 1 uL of DTT (prepared fresh; final concentration 250 uM) was dispensed for a final assay volume of 4 uL.
# 5. Plates were centrifuged (121xg, 15 seconds) and incubated for 30 minutes at room temperature protected from light.
# 6. Samples were read for fluorescence (Ex/Em = 525(20)/598(25) nm) on a ViewLux CCD imager (PerkinElmer). Data were normalized to DMSO (0% activity) and DA3003 (10 uM final concentration; 100% activity) and the resulting percent inhibition data were fitted to a 4-parameter Hill equation using NCATS in-house software.
# Potency is read from the fitted curve at half-maximal effect; tags tell the direction and shape of the fitted curve.
Structure (SMILES),Potency,redox activity (% of DA3003)
C=CC(C)(C)c1[nH]c2ccccc2c1C[C@@H]1NC(=O)[C@H](Cc2c[nH]c3ccccc23)NC1=O,"inconclusive [activator, single point]",
CCC1=CC2CN(C1)Cc1c([nH]c3ccccc13)[C@@](C(=O)OC)(c1cc3c(cc1OC)N(C)[C@H]1[C@@](O)(C(=O)OC)[C@H](OC(C)=O)[C@]4(CC)C=CCN5CC[C@]31[C@@H]54)C2 (stereo not given in full),"inconclusive [activator, partial curve, poor fit]",
CC1CCC2(C(=O)OC3OC(CO)C(O)C(O)C3O)CCC3(C)C(=CCC4C5(C)CC(O)C(O)C(C)(C(=O)O)C5CCC43C)C2C1(C)O (stereo not given),,inactive: -15% [at 25.6 µM]
Cc1cc2c(c(=O)o1)C=C1CC[C@H]([C@H](C)Cn3cnc(=N)c4[nH]cnc43)C[C@@H]1O2,"inconclusive [activator, single point]",
COc1cc2c(Nc3ccc(Cl)c(Cl)c3F)ncnc2cc1OCC1C[C@@H]2CN(C)C[C@@H]2C1 (stereo not given in full),"inconclusive [activator, partial curve, poor fit]",
O=C(Nc1ccc2[nH]c(=O)oc2c1)C(=O)N1CCC(Cc2ccc(F)cc2)CC1,,inactive: -6.14%
C=C1C(OC(=O)/C(C)=C\C)[C@@]23CCC4[C@@](C)(CCC[C@@]4(C)C(=O)O)C2CC[C@H]1C3OC(C)=O (stereo not given in full),,inactive: -7.26% [at 25.6 µM]
CC(=O)OC1CC(=O)C2(C)C3CC4=C(OC(C)CC4=O)OC3(C)CCC2C1(C)C (stereo not given),"inconclusive [activator, single point]",
CC1(C)CC[C@]2(C(=O)O[C@@H]3O[C@H](CO)[C@@H](O)[C@H](O)[C@H]3O)CC[C@]3(C)C(=CCC4[C@@]5(C)C[C@@H](O)[C@H](O)C(C)(C)C5[C@H](O)C[C@]43C)[C@@H]2[C@@H]1O (stereo not given in full),,inactive: 1.66% [at 25.6 µM]
C=CC(=O)Nc1cccc(Nc2nc(Nc3ccc(OCCOC)cc3)ncc2F)c1,"inconclusive [activator, single point]",
O=C(C1CCCCC1)N(CCN1CCN(c2ccccc2O)CC1)c1ccccn1,"inconclusive [activator, single point]",
CCCOc1ccc(S(=O)(=O)N2CCN(CCO)CC2)cc1-c1nc2c(CCC)cn(CC)c2c(=O)[nH]1,"inconclusive [activator, full curve]",
C=C1CC2C(C)(CCC(=O)O)C(C(C)(C)O)CCC2(C)C2(C(=O)OC)C(=O)C(C)(O)C(=O)C12C (stereo not given),"inconclusive [activator, partial curve, poor fit]",
CC(=O)c1c(C)cc2cccc(O)c2c1O[C@@H]1O[C@H](CO)[C@@H](O)[C@H](O)[C@H]1O,"inconclusive [activator, full curve]",
COC(=O)CC1OC(C)C2=C(O)c3c(O)cccc3C(=O)C23OC13 (stereo not given),"inconclusive [activator, full curve]",
COc1cc2c(cc1NS(=O)(=O)c1ccc(Br)cc1C)n(C)c(=O)n2C,"inconclusive [activator, partial curve, poor fit]",
C/C=C/C1=CC2=CC(=O)C(C)(O)C(OC(=O)c3c(C)cc(O)cc3O)C2CO1 (stereo not given),"inconclusive [activator, partial curve, poor fit]",
C=CC(C)(CC/C=C(\C)C(=O)OC)OC1OC(COC(=O)CC(C)(O)CC(=O)O)C(O)C(O)C1O (stereo not given),,inactive: 0.527% [at 25.6 µM]
N#CC1C(=O)Nc2scc(-c3ccc(-c4ccccc4O)cc3)c2C1=O (stereo not given),"inconclusive [activator, partial curve, poor fit]",
COc1ccc(CCN(C)CCCOc2nsc(-c3ccccc3)n2)cc1OC,"inconclusive [activator, full curve, poor fit]",

Structure (SMILES),Potency,redox activity (% of DA3003)
N=c1nc2n(cc1F)C1OC(CO)C(O)C1O2 (stereo not given),,inactive: -2.56%
COc1cc(C2CC(=O)Nc3c2cc(Br)c2ccccc32)cc(OC)c1OC (stereo not given),,inactive: -2.42%
C/C(=N\N=C(N)N)c1cc(NC(=O)CCCCCCCCC(=O)Nc2cc(/C(C)=N/N=C(N)N)cc(/C(C)=N/N=C(N)N)c2)cc(/C(C)=N/N=C(N)N)c1,"inconclusive [activator, partial curve, poor fit]",
Cc1c(C(=O)NCCCO)cnn1-c1nc(-c2cccc(C(F)(F)F)c2)cs1,"inconclusive [activator, single point]",
Cc1ccc(CN2CCNCC2)cc1NC(=O)CNc1ccc(F)c(F)c1,"inconclusive [activator, partial curve, poor fit]",
COc1ccc(/C=C/C(=O)O[C@H]2[C@@H]3C=CO[C@@H](O[C@@H]4O[C@H](CO)[C@@H](O)[C@H](O)[C@H]4O)[C@@H]3[C@@]3(CO)O[C@@H]23)cc1O,,inactive: 9.02% [at 25.6 µM]
Cc1cc(N(C)C)ccc1-c1nc2ccc(-c3nc4ccc(N5CCN(C)CC5)cc4[nH]3)cc2[nH]1,"inconclusive [activator, single point]",
Cc1cc2c(N3CCCC3)nc(N3CCCC3)nc2n1C,active: 0.844 µM,
C=CC(=O)Nc1cccc(Nc2nc(Nc3ccc(N4CCN(C(C)=O)CC4)cc3OC)ncc2C(F)(F)F)c1,"inconclusive [activator, full curve, poor fit]",
CC(=O)O[C@@H]1CC[C@@]2(C)[C@H](CC[C@@H]3[C@@H]2C[C@H](OC(C)=O)[C@]2(C)[C@@H](C(C)=O)CC[C@@H]32)C1,"inconclusive [activator, partial curve, poor fit]",
CC(C)c1cc2c(c(O)c1O[C@@H]1O[C@H](CO)[C@@H](O)[C@H](O)[C@H]1O)CC1(O)CCC(O)C(C)(C)C1CC2 (stereo not given in full),"inconclusive [activator, single point]",
CN1CCN(c2nc(-c3ccc(C(=O)NC4(C(=O)NCC#N)CCCCC4)cc3)cs2)CC1,,inactive: 15.9%
C/C(=C\CCC(C(=O)O)C1CCC2(C)C3=C(CCC12C)C1(C)CCC(=O)C(C)(C)C1CC3)C(=O)O (stereo not given),"inconclusive [activator, full curve, poor fit]",
O=C(C1=CCN2c3c(cccc31)OC[C@H]2CN1CCOCC1)c1cccc2ccccc12,"inconclusive [activator, full curve, poor fit]",
CC1CC(=O)C2=C(O1)OC1(C)CCC3C(C)(C)C=CC(=O)C3(C)C1C2 (stereo not given),"inconclusive [activator, single point]",
COC(=O)C1=CO[C@@H](O[C@@H]2O[C@H](CO)[C@@H](O)[C@H](O)[C@H]2O)[C@@H]2[C@@](C)(O)[C@@H](OC(=O)/C=C/c3ccc(O)cc3)C[C@]12O,,inactive: -14.6% [at 25.6 µM]
Cc1ncc(NC(=O)c2ccc(CN3CCN(C)CC3)c(C(F)(F)F)c2)cc1Nc1nccc(-c2cccnc2)n1,"inconclusive [activator, partial curve, poor fit]",
COc1ccc(Oc2c(Cl)cnn(-c3cc(C)cc(C)c3)c2=O)cc1,,inactive: -2.61%
COc1cccc(C(=O)N2CCN(C(=O)COc3cccc(C)c3)CC2)c1OC,"inconclusive [activator, single point]",
COc1ccc(N2CCOCC2)c2sc(NC(=O)N3CCC(C)(O)CC3)nc12,"inconclusive [activator, partial curve, poor fit]",
